Measured values: the supplement of paper PMC3334620
Whole data set: some 33,000 sequences, median “E-score (-0.5 to 0.5)” near -0.016, cut for the highest 2% near 0.31. Some of the results follow.

What follows are sequences tested against Cst6 (UniProt P40535) (assay: PBM E-score (8-mer binding enrichment) (E-score (-0.5 to 0.5)); higher = stronger / more preferred TF binding; most listed sequences are background and not binding sites). Conditions: protein concentration: 200 nM; construct: GST-DNA-binding domain.
Summary of the method: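 Yeast transcription factors carrying a GST tag, as full-length proteins or DNA-binding domains, were produced by PURExpress in vitro transcription/translation. About 100-200 nM protein was applied to universal all-10-mer Agilent arrays, double-stranded by primer extension on fresh or once-stripped slides. Bound protein was detected with fluorescent anti-GST, and scans were normalised with masliner. The Universal PBM Analysis Suite gave each ungapped eight-base word, pooled with its reverse complement, an E-score, a modified Wilcoxon-Mann-Whitney statistic.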
With AGGAGTAA the “PBM E-score” value was 0.0556. GCACTCGA was tested, and the “PBM E-score” value was -0.254. For CGAATAGA, the “PBM E-score” value was -0.0237. For CCTTGGCG, the “PBM E-score” value was -0.241. ACTTATTA was tested, and the “PBM E-score” value was 0.151. ACCAGTTC was tested, and the “PBM E-score” value was -0.195. CATAAGCG was tested, and the “PBM E-score” value was -0.032. For CTAGTGGA, the “PBM E-score” value was -0.293. For AATGCTAC, the “PBM E-score” value was 0.0664. In the case of CGCATTCA, the “PBM E-score” value is reported as 0.173. In the case of GTCTCTTA, the “PBM E-score” value is reported as -0.00905. For AAGCAACG, the “PBM E-score” value was 0.0661. With GAACCGCA the “PBM E-score” value was 0.113. With AACCTAGA the “PBM E-score” value was -0.0807. In the case of ATGACTGA, the “PBM E-score” value is reported as 0.225. With ATTCGTCC the “PBM E-score” value was 0.183. In the case of ATATACGA, the “PBM E-score” value is reported as 0.0274. In the case of CGCAGCGC, the “PBM E-score” value is reported as 0.091. For ATAGCGAC, the “PBM E-score” value was -0.13. With ACATGTCT the “PBM E-score” value was 0.0633. In the case of AAAGTGAG, the “PBM E-score” value is reported as 0.146. AGAGGGCA was tested, and the “PBM E-score” value was -0.155. GCGCCCAC was tested, and the “PBM E-score” value was -0.0564. With ACGAAACT the “PBM E-score” value was 0.0946. GCTGATCA was tested, and the “PBM E-score” value was 0.0157. For TATTGAAA, the “PBM E-score” value was 0.205. With ATTCTTGA the “PBM E-score” value was 0.177. For ATTGCCCG, the “PBM E-score” value was -0.142. With AGCGCTGA the “PBM E-score” value was 0.1. CATGGCAG was tested, and the “PBM E-score” value was -0.0579. In the case of ATCAACCA, the “PBM E-score” value is reported as 0.0394. CCGAGCCG was tested, and the “PBM E-score” value was 0.067. For CCGGTTAC, the “PBM E-score” value was 0.0405. In the case of ATGATCAA, the “PBM E-score” value is reported as 0.249. GGTCCTAC was tested, and the “PBM E-score” value was -0.285. With ATTTAATG the “PBM E-score” value was 0.276. In the case of ATGTAGCC, the “PBM E-score” value is reported as -0.142. For ACATTGGA, the “PBM E-score” value was 0.0753. For ACGAAGCT, the “PBM E-score” value was -0.0999. For AGAGCCGC, the “PBM E-score” value was 0.264. CCGCAACA was tested, and the “PBM E-score” value was 0.113. For CGCATCAG, the “PBM E-score” value was 0.00233. With CCGTTCTA the “PBM E-score” value was 0.0539. For CGCGCCAA, the “PBM E-score” value was 0.0906. With TGAAGGAA the “PBM E-score” value was -0.102. With ACGGGTCG the “PBM E-score” value was 0.0925. With ATATCACC the “PBM E-score” value was 0.297. With CCTATGCC the “PBM E-score” value was -0.17. For CACGGCCA, the “PBM E-score” value was -0.114. TGCGGTAA was tested, and the “PBM E-score” value was 0.258. In the case of GGAGGGGA, the “PBM E-score” value is reported as -0.125. With GCCAACAA the “PBM E-score” value was -0.0984. CCAGCAAG was tested, and the “PBM E-score” value was -0.174. ACCGGTCC was tested, and the “PBM E-score” value was -0.444. With AGCAGACC the “PBM E-score” value was -0.165. For AAGTCGTG, the “PBM E-score” value was -0.0611. With GACTAACA the “PBM E-score” value was 0.109. With CCTCTGTA the “PBM E-score” value was -0.122. For GAGGTAGC, the “PBM E-score” value was -0.346. ACAAAACG was tested, and the “PBM E-score” value was 0.225. For AATAGTGT, the “PBM E-score” value was 0.275. CGGTCACA was tested, and the “PBM E-score” value was 0.133. In the case of AACCTAGG, the “PBM E-score” value is reported as -0.0852. In the case of GCCGGGAA, the “PBM E-score” value is reported as -0.279. For AAACGACG, the “PBM E-score” value was 0.0881. With CAGCATCC the “PBM E-score” value was -0.179. GATCCTGA was tested, and the “PBM E-score” value was 0.0815. For CCGAGGGC, the “PBM E-score” value was -0.26. TACCCCCA was tested, and the “PBM E-score” value was -0.308. With AGCCTTAC the “PBM E-score” value was -0.17. For CGTGCTGA, the “PBM E-score” value was -0.0207. For CAAGATCC, the “PBM E-score” value was -0.041. With GAGAACTA the “PBM E-score” value was 0.0835. For CACCCAAG, the “PBM E-score” value was -0.145. TCATAGCA was tested, and the “PBM E-score” value was 0.255. CCGACGAG was tested, and the “PBM E-score” value was -0.15. In the case of CGGGGCAG, the “PBM E-score” value is reported as -0.0986. For CTTGAATC, the “PBM E-score” value was -0.0222. With CTGGAGGA the “PBM E-score” value was -0.371. CACACTGA was tested, and the “PBM E-score” value was 0.0518. ATATAGGG was tested, and the “PBM E-score” value was -0.0275. In the case of GTCGCCCA, the “PBM E-score” value is reported as -0.192. For GTGATGTA, the “PBM E-score” value was 0.465. With GGGAGACC the “PBM E-score” value was -0.494. AACCCGCC was tested, and the “PBM E-score” value was -0.135. With CTCACGCC the “PBM E-score” value was 0.0261. For GTACAGAA, the “PBM E-score” value was -0.0544. For GGTTAAAA, the “PBM E-score” value was 0.0477. In the case of CTACTACC, the “PBM E-score” value is reported as -0.109. For TGCCTTAA, the “PBM E-score” value was -0.0513. With ACACGTAA the “PBM E-score” value was 0.366. CCTAAACA was tested, and the “PBM E-score” value was -0.07. For ATATCCAA, the “PBM E-score” value was 0.203. CCGAGCGC was tested, and the “PBM E-score” value was -0.115. With AATTGTTC the “PBM E-score” value was 0.294. TAGTCTAA was tested, and the “PBM E-score” value was -0.17. TTCTCCAA was tested, and the “PBM E-score” value was -0.0647. In the case of GCAAGGCC, the “PBM E-score” value is reported as -0.112. With CGCTAACG the “PBM E-score” value was 0.251. With AATCGATC the “PBM E-score” value was -0.0562. GCAAGTAC was tested, and the “PBM E-score” value was -0.0407. With GAAAGGGC the “PBM E-score” value was -0.0242. AAGACAAG was tested, and the “PBM E-score” value was 0.0892. For CTTGTCAC, the “PBM E-score” value was 0.0224. In the case of CGTGGGTA, the “PBM E-score” value is reported as -0.25. For CTGAGTCC, the “PBM E-score” value was -0.271. In the case of AGATGTGG, the “PBM E-score” value is reported as 0.0193. For AGCATGAC, the “PBM E-score” value was 0.279. In the case of CAGTACAG, the “PBM E-score” value is reported as -0.148. In the case of AATTAGTC, the “PBM E-score” value is reported as 0.223. For AATCCCCT, the “PBM E-score” value was -0.354. GCCCAACA was tested, and the “PBM E-score” value was -0.301. For CAGGCTTC, the “PBM E-score” value was -0.0671. In the case of CAGTGCGA, the “PBM E-score” value is reported as -0.0203. For CCGAAGCC, the “PBM E-score” value was -0.175. For AGCTGATG, the “PBM E-score” value was 0.104. For CCGGACTC, the “PBM E-score” value was -0.171. In the case of CAGTAGGG, the “PBM E-score” value is reported as -0.22. In the case of ATAGTCGG, the “PBM E-score” value is reported as -0.21. With GGCGCGGA the “PBM E-score” value was -0.0925. In the case of ACGTCCCC, the “PBM E-score” value is reported as -0.225. In the case of AGTGTGAC, the “PBM E-score” value is reported as 0.253. With ATCCTAGA the “PBM E-score” value was -0.134. For AGGGTACG, the “PBM E-score” value was -0.0337. With ACAGTAGA the “PBM E-score” value was 0.202. In the case of GCAGAGAA, the “PBM E-score” value is reported as 0.0465. With GCCGGTCC the “PBM E-score” value was -0.342. CGGCTCAC was tested, and the “PBM E-score” value was -0.0029. With CCGGGGAA the “PBM E-score” value was -0.00802. In the case of CGCGAGCC, the “PBM E-score” value is reported as -0.0599. AATGGAAA was tested, and the “PBM E-score” value was 0.168. With AAGGGCAT the “PBM E-score” value was -0.00446. With AGTCCGAT the “PBM E-score” value was -0.121. AATCACAA was tested, and the “PBM E-score” value was 0.0779. For GTCTCAAC, the “PBM E-score” value was -0.143. In the case of ACTGGTCA, the “PBM E-score” value is reported as -0.0101. GATTATAA was tested, and the “PBM E-score” value was 0.185. In the case of AGCGGTAC, the “PBM E-score” value is reported as -0.0127. In the case of AAAGGATA, the “PBM E-score” value is reported as 0.161. With ATTGAGAG the “PBM E-score” value was 0.0205. With ACGCGACT the “PBM E-score” value was -0.126. For GCGTGGTA, the “PBM E-score” value was -0.03. ACGAGGAA was tested, and the “PBM E-score” value was -0.0604. In the case of ATCACCTC, the “PBM E-score” value is reported as 0.235. For GTAGGGGA, the “PBM E-score” value was -0.345. For ATGCCAAT, the “PBM E-score” value was 0.0384. In the case of AGCGTCCC, the “PBM E-score” value is reported as -0.149. For GAATAAAC, the “PBM E-score” value was 0.17. For CATCTTAG, the “PBM E-score” value was 0.0998. For GTTTACCA, the “PBM E-score” value was 0.0654. ATCGATAG was tested, and the “PBM E-score” value was 0.0406. For ACTCCTGC, the “PBM E-score” value was -0.0647. For AAGCAGAG, the “PBM E-score” value was 0.0385. In the case of ATCTCGGG, the “PBM E-score” value is reported as -0.048. With GCAGACCA the “PBM E-score” value was -0.2. In the case of ACGCGACA, the “PBM E-score” value is reported as 0.124. GCACTTTA was tested, and the “PBM E-score” value was 0.0376. With AAGGCCTT the “PBM E-score” value was -0.24. In the case of CGACTACC, the “PBM E-score” value is reported as -0.363. For ATGCGACC, the “PBM E-score” value was 0.0984. For GCATCCAA, the “PBM E-score” value was -0.112. CTTGTTAC was tested, and the “PBM E-score” value was 0.0412. For ATGGTTAA, the “PBM E-score” value was 0.0285. With CATTCGGG the “PBM E-score” value was -0.0944. With AGCAAGTG the “PBM E-score” value was -0.161. For ACTAGCTC, the “PBM E-score” value was -0.0558. CCGTCTCA was tested, and the “PBM E-score” value was 0.0207. In the case of GCGCGTCA, the “PBM E-score” value is reported as 0.381. With AATTTATA the “PBM E-score” value was 0.263. CATGAAGG was tested, and the “PBM E-score” value was 0.0654. ATTGGAGG was tested, and the “PBM E-score” value was -0.09. With CCGTCGCA the “PBM E-score” value was -0.0328.
